Laboratory results published in patent publication US20260193296A1 (priority 2023, published 2026).
Ends that are not written are not given here.

System: CsPUB21
Conditions: for E3 ligase activity of CsPUB21 protein in citrus: summary statement, demonstrated by experiments; for inhibition of the enzyme activity of CsPUB21 (self-ubiquitination): SDE3 and CsPUB21 exist at the same time, FIG. 2B; for inhibitory effect on the E3 ligase activity of CsPUB21: co-presence of SDE3 and CsPUB21, flg22 and chitin polypeptide as controls, FIG. 1C
From the text: Firstly, a vector for in vitro ubiquitination detection in Escherichia coli was constructed: a full-length clone of CsPUB21 was constructed into a vector pACYCDuet-CDS-Myc-AtUBC8-S by double digestion a enzyme ligation method to obtain a vector pACYCDuet-CsPUB21-Myc-AtUBC8-S. The full-length clone of SDE3 was constructed into a vector pGEX-DC by the double enzyme digestion ligation method to obtain a vector pGEX-SDE3.
(1) The vector pACYCDuet-CsPUB21-Myc-AtUBC8-S, the vector pGEX-SDE3, a vector pCDFDuet-AtUBA1-S and a vector pET-28a-FLAG-UBQ were jointly transferred into BL21 (DE3) competent cells, in which CsPUB21 served as an E3 ubiquitin ligase, AtUBC8 served as an E2 ubiquitin-conjugating enzyme, AtUBA1 served as an E1 ubiquitin-activating enzyme, and UBQ was a ubiquitin small molecule protein Ubiqutin.
(2) A strain containing an expression vector was cultured at 37° C. until Od600nm=0.4-0.6. After addition of 500 nM isopropyl β-D-thiogalactoside (IPTG), protein induction expression was performed at 28° C. for 10 hours, followed by reaction overnight at 4° C.
(3) The crude extracted protein material was separated by 8% SDS-PAGE gel, and the self-ubiquitination level of CsPUB21 was analyzed by immunohybridization using an anti-c-myc tag antibody.
(3) Inhibition of the enzyme activity of CsPUB21 by truncated peptides screened by ubiquitination experiment

DPMIWGYVMLNDRLSK [AMP9-16]
E3 ligase activity of CsPUB21 protein in citrus: inhibit the E3 ligase activity of CsPUB21 protein

DPMIWGYVMLNDSK [AMP-β]
E3 ligase activity of CsPUB21 protein in citrus: inhibit the E3 ligase activity of CsPUB21 protein

DPMIWGYVMLSESK [AMP3-14, DPMIWGYVMLSESK]
inhibition of the enzyme activity of CsPUB21 (self-ubiquitination): minimum peptide sequence that inhibited the enzyme activity of CsPUN21
E3 ligase activity of CsPUB21 protein in citrus: inhibit the E3 ligase activity of CsPUB21 protein

DPMIWGYVMLSESKDPMIWGYVMLNDSK [AMP-2β]
E3 ligase activity of CsPUB21 protein in citrus: inhibit the E3 ligase activity of CsPUB21 protein

MKKVKNIFHKIANADPMIWGYVML [AMP3-24]
E3 ligase activity of CsPUB21 protein in citrus: inhibit the E3 ligase activity of CsPUB21 protein

MKKVKNIFHKIANADPMIWGYVMLNDRLSK [AMP9]
inhibition of the enzyme activity of CsPUB21 (self-ubiquitination): significantly inhibit
inhibitory effect on the E3 ligase activity of CsPUB21: obvious inhibitory effect
E3 ligase activity of CsPUB21 protein in citrus: inhibit the E3 ligase activity of CsPUB21 protein

MKKVKNIFHKIANADPMIWGYVMLSESK [AMP3]
inhibition of the enzyme activity of CsPUB21 (self-ubiquitination): significantly inhibit
inhibitory effect on the E3 ligase activity of CsPUB21: obvious inhibitory effect
E3 ligase activity of CsPUB21 protein in citrus: inhibit the E3 ligase activity of CsPUB21 protein
